Out of some 48,000 compounds screened, about 450 (0.94%) were called active. Inconclusive results (about 19%) are left out. Calls come from the whole dose curve; as a rule, active = well fitted inhibition curve with a large enough effect; inconclusive = small, poorly fitted or top-dose-only effect; inactive = no such curve, though single readings can be large or run the other way. The list shows a part of the results.

A short description of this test: Primary qHTS for Identification of Small Molecule Inhibitors of Huntingtin Promoter Activity. Note: nearly all actives have a fitted effect of over 50% in size. As to conditions: HEK293 HTT promoter firefly luciferase reporter (activity 0% = vehicle and -100% = no light), 24 h; series mostly up to 57.5 µM; activity change, negative = inhibition: at the top concentration. An outline of the steps:
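HEK293 luciferase promoter-reporter cells (2,500/well) plated 24 h, then compounds added at up to 57.5 uM final for 24 h at 37 °C. Firefly luminescence by Dual-Glo, normalized to vehicle (0%) and zero RLU (-100%).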
`COc1ccccc1CNC(=O)CN1C(=O)CCCc2ccccc21`: the “activity change, negative = inhibition” value is inactive: 18.1%.

For the compound `CCc1ccc(NC(=O)c2oc3c(c2C)-c2[nH]ncc2CC3)cc1`, the “activity change, negative = inhibition” value was inactive: 79.7%.

As for `CCCCOc1ccc(C2c3c(oc4ccccc4c3=O)C(=O)N2c2nc(C)c(C(=O)OCC)s2)cc1OC` (centres undefined), the “activity change, negative = inhibition” value is inactive: -11.1%.

As for `COc1ccc(S(=O)(=O)NCCc2cn3ccsc3n2)cc1`, the “activity change, negative = inhibition” value is inactive: -3.61%.

In the case of `CC(=O)c1ccc(NC(=O)c2ccc(CN3C(=O)CCn4nc(C)cc43)cc2)cc1`, the “activity change, negative = inhibition” value is inactive: 18.5%.

For the compound `O=C(CCC1N=C2c3ccccc3N=C(SCc3cccc(F)c3)N2C1=O)NCc1ccc(F)cc1` (centres undefined), the “activity change, negative = inhibition” value was inactive: -22.5%.

With `CCc1ccc(NC(=O)Cn2nnc(C(=O)Nc3cc(C)ccc3OC)c2N)cc1`, the “activity change, negative = inhibition” value was inactive: -25.9%.

Take `O=C(Nc1ccccc1Br)N1CCN2CCCCC2C1` (centres undefined): the “activity change, negative = inhibition” value was inactive: 12.2%.

As to `NC1CCN(c2cccc(Cl)n2)CC1`, the “activity change, negative = inhibition” value was inactive: 13%.

`Cc1nn2c(=O)cc(COC(=O)c3ccc(F)cc3)nc2s1`: the “activity change, negative = inhibition” value is inactive: 8.83%.

Take `CCc1ccc(NC(=O)CN2C(=O)CCSc3ccc(S(=O)(=O)N4CCCC4)cc32)cc1`: the “activity change, negative = inhibition” value was inactive: -29.8%.

Turning to `COc1ccc(C(=O)c2cn(Cc3cccc(C)c3)c3cc4c(cc3c2=O)OCCO4)cc1OC`, the “activity change, negative = inhibition” value is inactive: -26.2%.

For the compound `CCN(CC)CCNC(=O)Cn1ncc2c3ccccc3n(Cc3ccccc3C)c2c1=O`, the “activity change, negative = inhibition” value was inactive: -4.86%.

On to `COC(=O)c1ccccc1NC(=O)c1cc(=O)c2ccc(C)c(C)c2o1`, for which the activity change, negative = inhibition is inactive: -7.53% [at 11.5 µM].

As to `CCOC(=O)C1CCN(c2nc3c(S(=O)(=O)c4ccc(CC)cc4)nnn3c3ccc(Cl)cc23)CC1`, the “activity change, negative = inhibition” value was inactive: -12.9%.

For `CC(=O)c1ccc(NC(=O)C2CCCN(S(=O)(=O)c3ccc(Br)s3)C2)cc1` (centres undefined), the “activity change, negative = inhibition” value is inactive: 17.1%.

As to `CCOc1ccc(NC(=O)c2sc3nc4n(c(=O)c3c2C)CCCC4)cc1`, the “activity change, negative = inhibition” value is inactive: 3.46%.

On to `Cc1cc(Cl)ccc1NC(=O)CS(=O)(=O)c1cccc2nsnc12`, for which the “activity change, negative = inhibition” value was inactive: -13.3%.

`Cc1ccc(C(=O)NCCSc2c[nH]c3ccccc23)cc1C`: the “activity change, negative = inhibition” value is inactive: -0.196%.

For `Cc1ccn2c(Nc3ccc4c(c3)OCO4)c(-c3ccc(C)o3)nc2c1`, the “activity change, negative = inhibition” value was inactive: 16.8%.

Take `CCOc1ccc(N(CC)C(=O)c2cc3c(s2)-c2ccc(Cl)cc2SC3)cc1`: the “activity change, negative = inhibition” value is inactive: -10.3%.

Take `Cc1cc(C)cc(NC(=O)CSc2oc(-c3cccs3)nc2S(=O)(=O)c2ccc(Br)cc2)c1`: the “activity change, negative = inhibition” value is inactive: -5.46%.

In the case of `COC(=O)c1sc2cccc(F)c2c1S(=O)(=O)NC(C)c1ccccc1` (centres undefined), the “activity change, negative = inhibition” value was inactive: -2.02%.

In the case of `CC(=O)NC(=O)c1ccccc1O`, the “activity change, negative = inhibition” value was inactive: -3.15%.

In the case of `COc1ccc(NC(=O)C2(S(=O)(=O)c3ccc(C)cc3)CC2)c(OC)c1`, the “activity change, negative = inhibition” value was inactive: 12%.

In the case of `COc1ccc(-c2c(C)c3ccc(O)c(CN4CCCCC4C)c3oc2=O)cc1OC` (centres undefined), the “activity change, negative = inhibition” value is inactive: -16.1%.

Regarding `CCOC(=O)C1CCN(C(=O)c2ccc3c(=O)n4nc(Nc5ccccc5)sc4nc3c2)CC1`, the “activity change, negative = inhibition” value was inactive: -34.1%.

For the compound `CCOc1ccc(NC(c2ccc(Cl)cc2)c2nnc(-c3cccc(F)c3)o2)cc1` (centres undefined), the “activity change, negative = inhibition” value was inactive: -14.7%.

Take `O=C(Nc1ccccc1F)C(c1ccccc1)N1Cc2ccccc2C1=O` (centres undefined): the “activity change, negative = inhibition” value is inactive: -9.42%.

For the compound `O=C(CSc1nccn1Cc1ccc(F)cc1)NC1CCCC1`, the “activity change, negative = inhibition” value was inactive: -23.8%.

For the compound `CCCOC(=O)c1ccc(NC(=O)C2CC(=O)N(c3ccc(C)cc3)C2)cc1` (centres undefined), the “activity change, negative = inhibition” value is inactive: -1.98%.

`CCCOc1ccccc1C(=O)N1CCCCC1CCN1CCCCC1` (centres undefined): the “activity change, negative = inhibition” value is inactive: -4.15%.

Take `CCC(=O)N1c2ccccc2CC1C(=O)NCCc1ccccc1OC` (centres undefined): the “activity change, negative = inhibition” value is inactive: -18.7%.

On to `CN1CC(=O)N2[C@H](c3ccc4c(c3)OCO4)c3[nH]c4ccccc4c3C[C@@H]2C1=O`, for which the “activity change, negative = inhibition” value was inactive: -8.63%.

For the compound `CCc1ccc(-n2nc(C)c3c(C(=O)Nc4ccc(Cl)cc4)cc(C)nc32)cc1`, the “activity change, negative = inhibition” value was inactive: -11.7%.

Regarding `CCCCNC(=O)CSc1nc(-c2ccc(OC)cc2)cc(C(F)(F)F)n1`, the “activity change, negative = inhibition” value was inactive: -14.3%.

As for `Cc1ccc(C)c(-c2ccc(=O)n(C(C)C(=O)Nc3ccccc3C(F)(F)F)n2)c1` (centres undefined), the “activity change, negative = inhibition” value is inactive: -26.8%.

As to `COc1ccc(OC)c(-n2nnc(-c3nc(-c4ccc5c(c4)OCO5)no3)c2C)c1`, the “activity change, negative = inhibition” value is inactive: 13.5%.

On to `O=C(NC1CC(=O)N(c2cccc(F)c2)C1)c1ccc(S(=O)(=O)N2CCCCC2)cc1` (centres undefined), for which the “activity change, negative = inhibition” value was inactive: -8.55%.

With `Cc1ccc(OCC(=O)Nc2nnc(SCc3cc(=O)n4cc(C)ccc4n3)s2)cc1`, the “activity change, negative = inhibition” value was inactive: -2.1%.

Turning to `Cc1noc(-c2ccc(N(C)Cc3ccccc3)c([N+](=O)[O-])c2)n1`, the “activity change, negative = inhibition” value was inactive: -12.7%.

For `COC(=O)c1ccccc1NC(=O)CCn1c(=O)c2cccn2c2cccnc21`, the “activity change, negative = inhibition” value was inactive: -3.21%.

For `COc1ccc(C(=O)Nc2cc(-c3nc4ncccc4o3)ccc2C)cc1Br`, the “activity change, negative = inhibition” value is inactive: 3.91%.

For the compound `COc1ccc(OCc2nc(-c3ccc(OC)c(OC)c3)no2)cc1`, the “activity change, negative = inhibition” value is inactive: -19.2%.

For `CC(=O)Nc1ccc(C)cc1-c1nc2ccccc2n(Cc2cccc(Br)c2)c1=O`, the “activity change, negative = inhibition” value is inactive: 0.372%.

For `CC(=O)Nc1c(C)nn(-c2ccccc2)c1N1CCC(C(=O)Nc2ccc(C)cc2Cl)CC1`, the “activity change, negative = inhibition” value is inactive: -9.33%.

Consider `C1CCC(C(CC2CCCCN2)C2CCCCC2)CC1` (centres undefined), for which the “activity change, negative = inhibition” value is inactive: -18.3%.

Take `CCCc1nc2nc(C)c(NS(=O)(=O)c3ccc(C)c(C)c3)c(=O)n2[nH]1`: the “activity change, negative = inhibition” value was inactive: 7.68%.

Take `CCOC(=O)C1CCCN(C(=O)c2ccc(C)c(NC(=O)c3nsc4ccccc34)c2)C1` (centres undefined): the “activity change, negative = inhibition” value was inactive: -30.8%.

Values taken from PubChem BioAssay AID1508623 (National Center for Advancing Translational Sciences (NCATS), 2021).
